# Data reported in PubChem BioAssay AID504832 (National Center for Advancing Translational Sciences (NCATS), 2011).
# In all, about 310,000 compounds went through this assay and about 18,000 (5.8%) were called active. Inconclusive means that the source gave no clear call. Such entries were picked first, then a sample of the others. The call rests on the fitted dose curve; in most records, active means well fitted inhibition curve with a large enough effect; inconclusive means small, poorly fitted or top-dose-only effect, or another doubt; inactive means no such curve, though single readings can be large or run the other way. Potencies of inconclusive entries are left out as doubtful fits.
# Assay: Primary qHTS for delayed death inhibitors of the malarial parasite plastid, 48 hour incubation
# Details: P. falciparum luciferase growth in erythrocytes; series mostly up to 28.7 µM; activity change, negative = inhibition: at the top concentration
# Procedure, shortened: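 In quantitative HTS format, infected erythrocytes bearing luciferase-reporter parasites were treated for a single generation at 37 C. Luminescence after adding detection reagent served as the growth measure.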
# On the % scale 0 is the no-effect control and ±100 the full control effect; potency means the concentration at half of the fitted maximal effect; tags describe the fitted curve by direction and shape.
SMILES,"activity change, negative = inhibition",Potency
Cc1cccc(-n2c(C)cc(/C=C3/C(=N)N4C(c5ccccc5)=CSC4=NC3=O)c2C)c1,inactive: 2.77%,–
CC(=O)CCC1C2C(O)C(C(C)C)C(OC(=O)/C=C/c3ccccc3)CC12C (stereo not given),–,"inconclusive [inhibitor, partial curve]"
CCN(CC)CCCn1c2c(c(SCC(=O)Nc3cc(OC)cc(OC)c3)nc1=O)CCC2,–,"inconclusive [inhibitor, single point]"
COc1ccc(C(=O)CC(=O)c2ccccc2O)cc1OC,–,"inconclusive [inhibitor, single point]"
COc1ccc(N(CC(=O)NC2CCCCC2)C(=O)CCC(=O)Nc2nc(C)cs2)cc1OC,–,"inconclusive [inhibitor, single point]"
O=C(NCCSc1ccccc1)c1cccnc1,inactive: 84.3%,–
Cc1ccc(C2NC(=S)NC3=C2C(=O)CC(C)(C)C3)cc1 (stereo not given),inactive: 16.6%,–
C/C(=N/NC(=O)c1cn(-c2cccc(C)n2)cn1)c1ccc(C)cc1,–,"inconclusive [inhibitor, full curve]"
Cc1sc2ncnc(N/N=C/c3ccccc3O)c2c1C,–,active: 2.94 µM
COC(=O)c1sc(N2C(=O)C(O)=C(C(=O)c3ccc(C)o3)C2c2ccc(OC)c(OC)c2)nc1C (stereo not given),inactive: -9.49%,–
COc1ccc(-c2cn3c(C)c(C(=O)Nc4cccc(NC(C)=O)c4)sc3n2)cc1,–,"inconclusive [inhibitor, partial curve]"
Cc1ccc(NC(=O)C2CCN(C(=O)c3cccs3)CC2)c(C)c1,inactive: 3.81%,–
COc1ccc(C(C)=O)cc1CC(=O)Nc1ccc2c(c1)CCC2,–,"inconclusive [inhibitor, single point]"
COc1ccc(C(=O)Nc2ccccc2NC(=O)c2ccco2)cc1OC,inactive: 4.57%,–
O=C(O)c1ccc(N2C(=O)CC(SC(=NCc3ccc4c(c3)OCO4)Nc3ccccc3)C2=O)cc1 (stereo not given),–,"inconclusive [inhibitor, single point]"
Clc1ccc(OCCCCCN2CCOCC2)cc1,inactive: 0%,–
COc1ccc(/C=C(\C#N)C(=O)OCC(=O)N2CC(C)OC(C)C2)cc1 (stereo not given),–,"inconclusive [inhibitor, single point]"
N#CC(Cc1ccccc1OC(F)F)c1nc2ccccc2[nH]1 (stereo not given),–,"inconclusive [inhibitor, partial curve, poor fit]"
CCOCCCNC(=O)c1oc2ccc(S(=O)(=O)N3CCOCC3)cc2c1C,–,"inconclusive [inhibitor, single point]"
CCC(C(=O)OC)n1cnc2scc(-c3ccc(C)cc3)c2c1=O (stereo not given),–,"inconclusive [inhibitor, single point]"
COc1cc(C(=O)Nc2ccc(NC(=O)c3cccc(Cl)c3)nc2)cc(OC)c1OC,–,active: 2.62 µM
CC(C(=O)NCc1ccco1)n1ccc2cc(S(=O)(=O)N3CCCCC3)ccc21 (stereo not given),–,"inconclusive [inhibitor, single point]"
CCOCCCn1c(=S)[nH]c2cc(C(=O)NCCCN(CC)CC)ccc2c1=O,inactive: -4.85%,–
CC(C)c1ccc(NC(=O)CNCC(c2ccccc2)N(C)C)cc1 (stereo not given),–,"inconclusive [inhibitor, partial curve, poor fit]"

SMILES,"activity change, negative = inhibition",Potency
OC(COc1ccc(CNCc2cccnc2)cc1)CN1CCc2ccccc2C1 (stereo not given),–,"inconclusive [inhibitor, single point]"
O=C(C1CC1)N1CCC(c2nc(-c3ccc(S(=O)(=O)NCC4CCCO4)cc3)no2)CC1 (stereo not given),–,active: 9.28 µM
CCOC(=O)C1CCCN(C(=O)c2cc(S(=O)(=O)Nc3ccccc3OC)ccc2C)C1 (stereo not given),–,"inconclusive [inhibitor, partial curve, poor fit]"
Cc1ccc(C)c(N(CC(=O)NC2CCCCC2)C(=O)c2snc(C(N)=O)c2N)c1,–,"inconclusive [inhibitor, single point]"
COc1ccc(OCC(=O)NCCNC(=O)c2ccccn2)cc1,inactive: 37%,–
CCCCCCCCCCCCCCCCCC(=O)OCC(O)CO (stereo not given),inactive: -12.7%,–
COc1ccc(CSc2nc(N3CCOCC3)c3c(c2C#N)CC(C)(C)OC3)cc1,–,active: 11.7 µM
CC1Cc2cc(S(=O)(=O)N3CCCCC3C)ccc2N1C(=O)C1CCC1 (stereo not given),–,"inconclusive [inhibitor, single point]"
Cc1c(S(=O)(=O)N2CCN(c3ccc(F)cc3)CC2)c(=O)n(C)c(=O)n1C,inactive: -4.32%,–
Cc1cccnc1NC(=O)C1CCN(S(=O)(=O)c2c(C)noc2/C=C/c2ccco2)CC1,–,"inconclusive [inhibitor, partial curve, poor fit]"
CCCOc1ccc(/C=N/Nc2cccc([N+](=O)[O-])c2)c(O)c1,–,"inconclusive [inhibitor, single point]"
Cc1ccc(OCCNC(=O)c2ccccc2N)cc1,inactive: 22.3%,–
CCCCSCCCNC(=O)CCCN1C(=O)c2ccccc2Sc2ncccc21,–,"inconclusive [inhibitor, single point]"
CN(C)c1ccc(NC(=O)N2CCOCC2)cc1,–,active: 6.57 µM
COc1ccc(-c2ccc(C(C)=O)cc2)cc1[C@H]1[C@H]2C=CC[C@@H](C)[C@@H]2C(=O)N1Cc1ccccc1,–,"inconclusive [inhibitor, partial curve, poor fit]"
O=c1oc2c(CN3CCOCC3)c(O)c(Cl)cc2c2c1CCC2,–,active: 1.04 µM
O=C(NC1CCCCC1)c1ccc([N+](=O)[O-])o1,–,active: 10.4 µM
O=C(CCC(=O)N1CCN(C2CCCC2)CC1)Nc1nnc(C(F)(F)F)s1,–,"inconclusive [inhibitor, partial curve]"
Cc1csc(NC(=O)c2cc(-c3ccncc3)nc3ccccc23)n1,inactive: -37.4%,–
CCOC(=O)c1cc(NC(=O)C2C3C=CC(O3)C2C(=O)O)cc(C(=O)OCC)c1 (stereo not given),–,"inconclusive [inhibitor, full curve, poor fit]"
O=C(CC1CC2CCC1C2)Nc1nc(-c2ccccn2)cs1 (stereo not given),–,active: 2.62 µM
COc1ccc(N2CCN(C(=O)c3ccc(COc4ccc([N+](=O)[O-])cc4)o3)CC2)cc1,–,"inconclusive [inhibitor, single point]"
Cc1ccccc1C(=O)Nc1ccc(C(=O)N/N=C/c2ccc(F)cc2)cc1,–,"inconclusive [inhibitor, single point]"
CC(=O)[C@@H]1[C@@H](C)N(Cc2ccccc2)C(=O)N[C@H]1c1cccc(C(F)(F)F)c1,–,"inconclusive [inhibitor, single point]"

SMILES,"activity change, negative = inhibition",Potency
Cc1noc(/C=C/c2ccccn2)c1[N+](=O)[O-],–,"inconclusive [inhibitor, partial curve]"
Cc1csc(NC(=O)Cc2ccc(F)cc2)n1,inactive: 99.9%,–
O=C(CCCn1c(=S)[nH]c2ccsc2c1=O)NCc1ccco1,–,"inconclusive [inhibitor, partial curve, poor fit]"
CC(Sc1nc2ccccc2c(=O)n1CC1CCCO1)C(=O)N(C)c1ccccc1 (stereo not given),–,"inconclusive [inhibitor, partial curve]"
COc1ccc(N(C(C)C(=O)N/N=C/c2cc(Br)c(C)o2)S(C)(=O)=O)cc1 (stereo not given),–,"inconclusive [inhibitor, partial curve, poor fit]"
COc1ccc(C(=O)Nc2cccc(/C=C(\CCC(=O)O)c3nc4ccccc4s3)c2)cc1,inactive: 33.5%,–
O=C(Nc1ccccc1F)c1cc(C(=O)Nc2ccccc2F)cc([N+](=O)[O-])c1,–,"inconclusive [inhibitor, single point]"
CC(=O)N1c2ccc(S(=O)(=O)NCCC(=O)Nc3ncccc3C)cc2CC1C (stereo not given),inactive: 10.5%,–
Fc1cccc(Cn2cc(C(=S)N3CCCCC3)c3ccccc32)c1,–,active: 11.7 µM
Cc1[nH]c2ccccc2c1C(=O)CN1CCN(C2CCCCC2)CC1,–,"inconclusive [inhibitor, single point]"
CC(C)CC1=NN(C(=O)c2ccco2)C(O)(C(F)(F)F)C1 (stereo not given),inactive: 52.4%,–
Cc1ccc(C(=O)OC(C)C(=O)NC2CCCCC2C)s1 (stereo not given),–,"inconclusive [inhibitor, single point]"
O=C1CC(c2ccccc2Br)c2cc3c(cc2N1)CCC3 (stereo not given),–,"inconclusive [inhibitor, partial curve]"
CC1(c2nnc(Cc3ccccc3)o2)CC(c2cccc([N+](=O)[O-])c2)=NO1 (stereo not given),inactive: 1.2%,–
COc1ccc(C2=CSC3=NNC4(CCCCC4)NN23)cc1,–,"inconclusive [inhibitor, partial curve, poor fit]"
COC(=O)/C(=C\Nc1ccc(Cl)cc1Cl)NC(=O)c1ccccc1,inactive: 1.68%,–
COc1ccccc1NC(=O)CN1CCN(CC(=O)Nc2ccc(C)c(F)c2)CC1,–,"inconclusive [inhibitor, single point]"
O=C(/C=C/c1ccccc1)NC1CCCc2ccccc21 (stereo not given),–,"inconclusive [inhibitor, partial curve, poor fit]"
COc1ccc(NC(=O)c2ccc3c(c2)NC(=O)CS3)cc1S(=O)(=O)Nc1ccc(Br)cc1,inactive: -27.6%,–
COc1ccc2c(c1)N(C)/C(=C1/SC(=S)N(NC(C)=O)C1=O)S2,–,"inconclusive [inhibitor, partial curve, poor fit]"
Cc1cc(/C=N/N2CCN(C)CC2)c(C)n1-c1ccc(Cl)cc1,–,active: 11.7 µM
O=c1c(-c2ccccc2)c[nH]n1-c1cccc([N+](=O)[O-])c1,–,"inconclusive [inhibitor, single point]"
